# About 2,200 (0.71%) of roughly 310,000 compounds showed an effect of 50% or more. The effect is printed as a negative number. The list shows a part of the results.
# Molecular target: human ether-à-go-go-related gene (hERG) potassium channel (human, UniProt Q12809)
# Assay: primary screen, population patch clamp on CHO cells stably expressing hERG
# Sequence of human ether-à-go-go-related gene (hERG) potassium channel (Q12809 whole entry, looked up): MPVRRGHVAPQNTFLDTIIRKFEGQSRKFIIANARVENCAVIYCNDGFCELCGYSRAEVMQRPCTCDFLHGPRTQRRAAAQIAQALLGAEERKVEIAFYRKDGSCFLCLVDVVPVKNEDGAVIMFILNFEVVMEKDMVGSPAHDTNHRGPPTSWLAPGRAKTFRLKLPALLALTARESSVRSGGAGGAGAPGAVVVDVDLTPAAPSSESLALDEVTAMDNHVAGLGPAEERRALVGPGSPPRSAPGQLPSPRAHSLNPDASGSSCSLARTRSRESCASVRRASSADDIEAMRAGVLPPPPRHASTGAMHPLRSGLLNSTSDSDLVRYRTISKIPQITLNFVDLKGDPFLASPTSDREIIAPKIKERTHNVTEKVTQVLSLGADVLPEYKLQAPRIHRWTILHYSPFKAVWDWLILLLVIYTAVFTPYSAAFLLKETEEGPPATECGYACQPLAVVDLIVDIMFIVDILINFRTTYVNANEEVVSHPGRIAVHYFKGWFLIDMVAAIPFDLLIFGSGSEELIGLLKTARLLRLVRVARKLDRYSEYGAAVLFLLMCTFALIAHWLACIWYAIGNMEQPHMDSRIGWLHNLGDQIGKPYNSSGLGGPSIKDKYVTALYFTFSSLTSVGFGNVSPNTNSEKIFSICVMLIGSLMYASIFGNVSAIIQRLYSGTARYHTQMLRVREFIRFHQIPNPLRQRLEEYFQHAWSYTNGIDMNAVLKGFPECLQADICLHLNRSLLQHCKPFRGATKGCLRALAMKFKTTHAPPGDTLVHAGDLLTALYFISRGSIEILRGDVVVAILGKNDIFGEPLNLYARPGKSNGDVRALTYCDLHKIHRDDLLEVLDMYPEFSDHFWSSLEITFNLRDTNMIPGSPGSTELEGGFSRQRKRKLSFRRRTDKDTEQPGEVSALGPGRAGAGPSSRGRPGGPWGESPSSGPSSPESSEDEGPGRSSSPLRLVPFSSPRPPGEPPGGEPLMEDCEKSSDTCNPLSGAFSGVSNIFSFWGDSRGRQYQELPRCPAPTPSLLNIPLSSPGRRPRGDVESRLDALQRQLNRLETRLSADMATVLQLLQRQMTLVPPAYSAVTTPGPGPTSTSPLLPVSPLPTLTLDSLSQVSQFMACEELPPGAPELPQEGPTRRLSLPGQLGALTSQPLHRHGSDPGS
row,Compound,"hERG current change (%, negative = inhibition) at 1uM"
1,Cl.c1ccc(CNc2nc(NCc3ccccc3)c3ccccc3n2)cc1,16.8%
2,O=C(c1cccn2c(=O)c3cc(Cl)ccc3nc12)N1CCN(Cc2ccc3c(c2)OCO3)CC1,-33.5%
3,CC(C)CC(COCc1ccc(Cl)cc1)N1CCN(C(=O)c2ccc(C(F)(F)F)cc2)CCC1=O (stereo not drawn),-5.92%
4,O=C(NC(=S)Nc1ccccc1N1CCOCC1)c1ccc(-c2ccccc2F)o1,14.7%
5,CC(C)(O)C#Cc1ccc(CN2CCN(Cc3ccccc3)C(CCO)C2)cc1 (stereo not drawn),12.1%
6,Cc1ccccc1NC(=O)CSc1ccc(-c2cccnc2)nn1,1.7%
7,COc1ccc(NC(=O)C(NC(C)=O)C(=O)NCc2ccccc2)cc1 (stereo not drawn),7.92%
8,COc1ccc(C(=O)Nc2ccc(-c3n[nH]c(=S)o3)cc2)cc1OC,16.8%
9,COc1ccc(N(C)S(=O)(=O)c2c(C)[nH]c(=O)[nH]c2=O)cc1,-6.94%
10,CCOC(=O)/C(=N\Nc1ccccc1[N+](=O)[O-])c1csc(Nc2ccccc2)n1,13.2%
11,CC(C(=O)Nc1nccs1)N1C(=O)c2ccccc2S1(=O)=O (stereo not drawn),7.64%
12,CCc1nnc(NC(=O)CCc2nc(C3=CCN(C)CC3)no2)s1,11.3%
13,Cc1cccc(N2CCN(C(=S)NCCc3ccccc3)CC2)c1C,10.1%
14,CCOC(=O)CNc1nc2ccccc2n2c(C)nnc12,3.97%
15,O=C(N/N=C/c1cccc(Oc2ccccc2)c1)c1cc[n+]([O-])cc1,-0.621%
16,CCOC(=O)c1sc2ncn(C(CC)C(=O)OC)c(=O)c2c1C (stereo not drawn),11.5%
17,COc1ccc(S(=O)(=O)N2CCCN(CC(=O)Nc3ccc(OC)c(Cl)c3)CC2)cc1,7.89%
18,COc1cc(NC(=S)NCCN2CCOCC2)cc(OC)c1,5.31%
19,COc1ccc(Cc2c(O)nc(SCC(=O)NC(C)(C)C)[nH]c2=O)cc1,12.2%
20,C=CCOc1ccc(CNc2ccc3[nH]c(=O)[nH]c3c2)cc1OCC,7.04%
21,O=C(NCc1ccccc1)C(c1ccccc1)N(C(=O)c1csnn1)C1CCCC1 (stereo not drawn),8.62%
22,CCOC(=O)N1CCN(C(=O)CSc2nnc(-c3cccs3)o2)CC1,3.19%
23,CC(C)(C)c1ccc(-c2n[nH]c(=S)n2/N=C/c2ccncc2)cc1,12.7%

row,Compound,"hERG current change (%, negative = inhibition) at 1uM"
1,CN1CCN(C(=S)NC(CC(=O)c2ccccc2)c2ccccc2)CC1 (stereo not drawn),8.1%
2,C=C(C)COc1ccc(-c2nc(N)ncc2Oc2ccccc2OC)c(O)c1,1.36%
3,O=C(O)CCCn1cc(NC(=O)COc2ccc(F)cc2)cn1,11%
4,CN=C1S/C(=C/c2cn(CC(=O)OC)c3ccccc23)C(=O)N1C,10.2%
5,Cc1ccc2c(c1)C=CC(C)(C)S2(=O)=O,17.1%
6,Cc1cc(=O)oc2cc(OCC(=O)OCC(=O)Nc3ccc4ccccc4c3)ccc12,-6.93%
7,Cc1nn(C)c(C(=O)N/N=C/c2ccccc2)c1[N+](=O)[O-],12.8%
8,COc1ccc(CC(=O)NNC(=O)c2nn(Cc3ccccc3)c(=O)c3ccccc23)cc1OC,11.7%
9,Cc1noc(C)c1C(=O)Nc1cccc(S(=O)(=O)N2CCOCC2)c1,6.56%
10,CCCCc1ccc(-c2csc(/C(C#N)=C/c3ccco3)n2)cc1,-0.88%
11,COc1cc(C(=O)O/N=C(\N)c2ccncc2)cc(OC)c1OC,2.58%
12,COC(=O)C1CCCCN1C(=O)c1cccc(OC2CCN(C(=O)C3CC3)CC2)c1 (stereo not drawn),12.2%
13,Clc1cccc(Cl)c1CN1CCN(c2ncccn2)CC1,19.9%
14,CCOc1ccccc1C(=O)Nc1nnc(COC)s1,4.5%
15,Cc1cc(C(=O)CN2C(=O)NC(c3ccccc3)(c3ccccc3)C2=O)c(C)n1Cc1ccccc1,-1.27%
16,O=C(CNC(=O)c1cccs1)OCc1ccc(Br)cc1,7.97%
17,CNC(=O)C1CC(=O)N(Cc2ccc(OC)c(OC)c2)C(=Nc2ccc(OC)cc2)S1 (stereo not drawn),10%
18,CC(C)N1C(=O)CCC1C(=O)N1CCN(c2ccc(F)cc2)CC1 (stereo not drawn),10.5%
19,COc1ccc(CN(C(=O)c2cc(=O)c3ccccc3o2)C2CCS(=O)(=O)C2)cc1OC (stereo not drawn),10.9%
20,CC(=O)c1sc(NC(=O)c2cccc(N3C(=O)CCC3=O)c2)nc1-c1ccccc1,6.03%
21,O=C(CCC(=O)c1cccs1)c1cccs1,12.6%
22,CCC(C)NC(=O)CSC1=Nc2ccccc2C2=NC(CCC(=O)NCc3ccco3)C(=O)N12 (stereo not drawn),9.53%

# Reference: PMC4336329 (PLoS ONE, 2015)
